Laboratory results from PMC9381633.
Numbering of substitutions follows the chain as printed. Results are given in words; binding and its absence hold for the method and conditions named. Binding seen in cells or lysates may run through a third protein. Some entries that bind do so weakly or less than the wild type. For part of these data: Tags and fused reporters may be left off the sequences shown. Each block holds one binder with its values, some of them ahead of it.

Sequences of proteins named here, by UniProt entry; tags and fusion partners are left off. A change or cut given only in a name is not applied to a line headed by its entry. Residues count along the entry.
UniProt O70441: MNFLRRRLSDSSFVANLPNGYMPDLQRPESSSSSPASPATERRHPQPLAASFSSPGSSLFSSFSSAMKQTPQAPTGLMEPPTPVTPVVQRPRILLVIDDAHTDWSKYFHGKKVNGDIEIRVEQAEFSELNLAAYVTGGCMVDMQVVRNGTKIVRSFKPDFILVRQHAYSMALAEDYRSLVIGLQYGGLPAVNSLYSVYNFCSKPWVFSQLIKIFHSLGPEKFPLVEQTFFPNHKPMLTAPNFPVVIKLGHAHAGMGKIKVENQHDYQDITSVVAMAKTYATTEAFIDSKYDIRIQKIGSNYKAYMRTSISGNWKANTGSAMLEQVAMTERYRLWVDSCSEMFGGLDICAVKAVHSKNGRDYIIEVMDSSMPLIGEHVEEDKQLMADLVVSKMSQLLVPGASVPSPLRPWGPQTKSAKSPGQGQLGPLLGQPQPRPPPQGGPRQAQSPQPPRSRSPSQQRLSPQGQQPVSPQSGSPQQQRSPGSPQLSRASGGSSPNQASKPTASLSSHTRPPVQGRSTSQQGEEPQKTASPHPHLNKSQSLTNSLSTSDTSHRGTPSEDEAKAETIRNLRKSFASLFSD
EGFP-Syn3aΔE: residues 1-529 of O70441
EGFP-Syn3aΔJE: residues 1-400 of O70441
EGFP-Syn3aΔCJE: residues 1-91 of O70441
EGFP-Syn3aΔBCJE: residues 1-28 of O70441
UniProt Q63537: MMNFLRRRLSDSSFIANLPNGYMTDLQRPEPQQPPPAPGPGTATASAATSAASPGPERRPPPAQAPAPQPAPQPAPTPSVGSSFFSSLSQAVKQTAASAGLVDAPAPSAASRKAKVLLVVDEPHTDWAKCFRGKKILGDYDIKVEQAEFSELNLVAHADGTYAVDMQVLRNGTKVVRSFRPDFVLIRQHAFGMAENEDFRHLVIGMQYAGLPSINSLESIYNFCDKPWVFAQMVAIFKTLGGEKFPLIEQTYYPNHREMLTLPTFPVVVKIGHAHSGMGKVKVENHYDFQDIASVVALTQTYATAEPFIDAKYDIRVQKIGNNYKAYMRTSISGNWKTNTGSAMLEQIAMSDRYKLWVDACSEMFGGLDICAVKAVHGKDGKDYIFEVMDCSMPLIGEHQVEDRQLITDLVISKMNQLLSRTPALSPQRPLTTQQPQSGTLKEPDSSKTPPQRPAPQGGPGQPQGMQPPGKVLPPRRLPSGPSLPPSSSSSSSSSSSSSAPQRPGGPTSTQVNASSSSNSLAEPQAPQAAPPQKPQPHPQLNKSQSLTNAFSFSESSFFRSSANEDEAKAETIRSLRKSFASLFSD
UniProt Q96LT7: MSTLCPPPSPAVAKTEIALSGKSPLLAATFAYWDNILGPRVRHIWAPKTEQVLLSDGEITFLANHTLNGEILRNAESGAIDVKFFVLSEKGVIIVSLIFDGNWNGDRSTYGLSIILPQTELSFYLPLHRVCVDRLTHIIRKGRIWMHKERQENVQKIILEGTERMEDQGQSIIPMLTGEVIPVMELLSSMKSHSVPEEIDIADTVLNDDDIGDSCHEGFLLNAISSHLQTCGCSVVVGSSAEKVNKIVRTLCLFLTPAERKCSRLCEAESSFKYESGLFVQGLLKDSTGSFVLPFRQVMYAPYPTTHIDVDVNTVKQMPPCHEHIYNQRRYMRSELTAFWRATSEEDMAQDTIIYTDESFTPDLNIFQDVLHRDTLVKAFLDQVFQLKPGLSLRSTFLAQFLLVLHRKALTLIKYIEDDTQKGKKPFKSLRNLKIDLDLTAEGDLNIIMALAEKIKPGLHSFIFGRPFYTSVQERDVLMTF

How the values were obtained:
[1] = biological target: EGFP-tagged Syn1a (UniProt P09951); assay: co-IP; HEK293 co-transfected; modified BRB80 buffer; immunoprecipitation of EGFP/YFP-synapsin with an anti-GFP antibody; immunoblot for GFP/YFP and Myc-C9orf72L
[2] = biological target: full-length EGFP-Syn3a (UniProt O70441); assay: as above
[3] = biological target: YFP-tagged Syn2a (UniProt Q63537); assay: as above
[4] = biological target: EGFP-Syn3aΔE (UniProt O70441); assay: co-IP; HEK293 co-transfected; modified BRB80 buffer; immunoprecipitation of EGFP-Syn3a constructs with GFP-Trap magnetic agarose beads; immunoblot for Myc-C9orf72L and EGFP
[5] = biological target: EGFP-Syn3aΔBCJE (UniProt O70441); assay: as above
[6] = biological target: full-length EGFP-Syn3a (UniProt O70441); assay: as above
[7] = biological target: EGFP-Syn3aΔJE (UniProt O70441); assay: as above
[8] = biological target: EGFP-Syn3aΔCJE (UniProt O70441); assay: as above
[9] = biological target: T1, endogenous C9orf72 (mouse brain synaptosomes) (mouse (endogenous in mouse brain synaptosomes)) (UniProt Q6DFW0); assay: co-IP; endogenous proteins; crude synaptosomal fraction (P2') of 12-week-old mouse brains solubilised in 80 mM PIPES pH 6.8, 1% NP-40, IP with 50 mM NaCl, 4 µg anti-C9orf72 antibody 16 h at 4 °C, Protein G Mag Sepharose; controls: irrelevant antibody and C9orf72-KO synaptosomes
T1 sequence: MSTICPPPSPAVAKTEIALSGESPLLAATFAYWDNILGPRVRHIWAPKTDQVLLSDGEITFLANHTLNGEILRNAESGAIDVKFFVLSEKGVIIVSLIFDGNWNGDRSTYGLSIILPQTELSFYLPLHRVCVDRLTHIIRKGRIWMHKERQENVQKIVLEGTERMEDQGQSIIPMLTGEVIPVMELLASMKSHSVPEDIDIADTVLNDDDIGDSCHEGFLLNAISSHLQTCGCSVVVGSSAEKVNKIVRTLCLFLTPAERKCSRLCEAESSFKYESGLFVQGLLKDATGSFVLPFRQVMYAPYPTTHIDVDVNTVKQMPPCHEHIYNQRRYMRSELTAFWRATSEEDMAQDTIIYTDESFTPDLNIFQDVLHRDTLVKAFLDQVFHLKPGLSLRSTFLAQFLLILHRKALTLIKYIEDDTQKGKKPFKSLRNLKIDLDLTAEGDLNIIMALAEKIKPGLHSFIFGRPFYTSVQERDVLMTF

binding [1]: binds | binding [2]: binds | binding [3]: binds | binding [4]: binds | binding [5]: no binding | binding [6]: binds | binding [7]: binds | binding [8]: no binding
B1: Myc-tagged C9orf72L (protein, UniProt Q96LT7 1-481)
chain: T1 sequence with I4L, E22K, D50E, V158I, A188S, D198E, A287S, H386Q, I404V

binding [9]: binds
B2: endogenous SMCR8 (mouse brain synaptosomes) (protein, UniProt Q3UMB5 1-935)
chain: MISAPDVVAFTKEDEYEEEPYNEPALPEEYSVPLFPYASQGANPWSKLSGAKFSRDFILISEFSEQVGPQPLLTIPNDTKVFGTFDLNYFSLRIMSVDYQASFVGHPPGSAYPKLNFVEDSKVVLGDSKEGAFAYVHHLTLYDLEARGFVRPFCMAYISADQHKIMQQFQELSAEFSKASECLKMGNRKAFAGELEKKLKDLDYTRTVLHTETEIQKKANDKGFYSSQAIEKANELANVEKSIIEHQDLLRQIRSYPRQKTKIPDLQPGDTEHTQDQADQVSTTSNPEESANADLYTCRPAYTPKLIKAKSTKCFDKKLKTLEELCDTEYFTQTLAQLSHIEHMFRGDLCYLLTSQIDRVLRKQQPITNFLFEDFVEVDDRMEKQENVPSQPSQDRLPPKPVEECPIPKVLISVGSYKSSVESVLIKMEQELGDEEYTGVEATEARSFDPQENLDYLDMDMKGSISSGESIEVLGTEKSASVLSKSDSQASLTVPLSPHVVRSKAVSHRTISEDSIEVLSTCPSEALIPDDFKASYPSAINEEEAYADNEGAIHFQASAGSPEPDETQEGNLENIPSQIDSSCCIGKESEGHLVPLPTPAYTLSDEDSVVSIPPQRYIQKDQGLHVDFGVENTDPSPRDNSCEMFPAYELDPSCLLASRDVSKMSLDNYSDTTSYMGSAASTSSDRIPSAPPAGLSSERHKKRAGQNALKFIRQYPFAHPAIYSLLSGRTLVVLGEDETIVRKLVTALSIFVPNYGCYAKPVKHWISSPLHIMDFQKWKLIGLQRVASPANVGTLHTLSRYSRYTSILDLDSKTLRCPLYRGTLVPRLADHRTQIKRGSTYYLHVQSMLTQLCSKAFLYTFCHHLHLPAHSEETQEAVASRQTSFLKLNLGLVNEDIRVVQYLAELLKLHYMQESPGTTHPLLRFDYVPSFLYKI
